No constants are given. Whether binding was seen depends on the method and setting. In cells and extracts the contact can be indirect. Some binding calls cover weakened binding; strength is not graded here. Tags and fused reporters may be left off the sequences shown.
Tests used:
[1] = target: T1, Vps8ΔC-TAP (N-terminal domain of Vps8, up to residue 450, C-terminal TAP tag) (yeast (genomic locus of BY4733 strains)) (UniProt P39702); test: co-IP; small-scale TAP purification: C-terminally TAP-tagged Vps8 or Vps3 (full-length or truncated) captured from yeast lysate (50 mM HEPES/KOH pH 7.4, 300 mM NaCl, 0.15% NP-40, 2 mM MgCl2, 1 mM DTT) on IgG beads, 1.5 h at 4°C; eluted with glycine pH 2.5 or TEV protease; Western blot with anti-Cbp, anti-HA, anti-Vps11; also with overproduced Vps8ΔN and from vps21Δ and vps21Δ ypt52Δ ypt53Δ ypt7Δ strains
T1 sequence: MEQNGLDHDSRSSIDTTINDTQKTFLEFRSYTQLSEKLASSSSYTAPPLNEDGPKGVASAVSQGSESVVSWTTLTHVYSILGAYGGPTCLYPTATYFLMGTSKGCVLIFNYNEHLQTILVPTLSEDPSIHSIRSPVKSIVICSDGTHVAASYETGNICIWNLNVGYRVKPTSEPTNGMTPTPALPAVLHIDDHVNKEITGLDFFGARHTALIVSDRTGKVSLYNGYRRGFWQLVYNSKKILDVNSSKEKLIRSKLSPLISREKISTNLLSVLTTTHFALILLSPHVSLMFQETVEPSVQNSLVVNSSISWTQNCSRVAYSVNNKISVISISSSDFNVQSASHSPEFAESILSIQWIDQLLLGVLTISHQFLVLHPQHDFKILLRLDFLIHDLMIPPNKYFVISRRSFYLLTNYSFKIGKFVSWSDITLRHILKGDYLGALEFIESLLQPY

Sequences of proteins named here, by UniProt entry; tags and fusion partners are left off.
UniProt P12868: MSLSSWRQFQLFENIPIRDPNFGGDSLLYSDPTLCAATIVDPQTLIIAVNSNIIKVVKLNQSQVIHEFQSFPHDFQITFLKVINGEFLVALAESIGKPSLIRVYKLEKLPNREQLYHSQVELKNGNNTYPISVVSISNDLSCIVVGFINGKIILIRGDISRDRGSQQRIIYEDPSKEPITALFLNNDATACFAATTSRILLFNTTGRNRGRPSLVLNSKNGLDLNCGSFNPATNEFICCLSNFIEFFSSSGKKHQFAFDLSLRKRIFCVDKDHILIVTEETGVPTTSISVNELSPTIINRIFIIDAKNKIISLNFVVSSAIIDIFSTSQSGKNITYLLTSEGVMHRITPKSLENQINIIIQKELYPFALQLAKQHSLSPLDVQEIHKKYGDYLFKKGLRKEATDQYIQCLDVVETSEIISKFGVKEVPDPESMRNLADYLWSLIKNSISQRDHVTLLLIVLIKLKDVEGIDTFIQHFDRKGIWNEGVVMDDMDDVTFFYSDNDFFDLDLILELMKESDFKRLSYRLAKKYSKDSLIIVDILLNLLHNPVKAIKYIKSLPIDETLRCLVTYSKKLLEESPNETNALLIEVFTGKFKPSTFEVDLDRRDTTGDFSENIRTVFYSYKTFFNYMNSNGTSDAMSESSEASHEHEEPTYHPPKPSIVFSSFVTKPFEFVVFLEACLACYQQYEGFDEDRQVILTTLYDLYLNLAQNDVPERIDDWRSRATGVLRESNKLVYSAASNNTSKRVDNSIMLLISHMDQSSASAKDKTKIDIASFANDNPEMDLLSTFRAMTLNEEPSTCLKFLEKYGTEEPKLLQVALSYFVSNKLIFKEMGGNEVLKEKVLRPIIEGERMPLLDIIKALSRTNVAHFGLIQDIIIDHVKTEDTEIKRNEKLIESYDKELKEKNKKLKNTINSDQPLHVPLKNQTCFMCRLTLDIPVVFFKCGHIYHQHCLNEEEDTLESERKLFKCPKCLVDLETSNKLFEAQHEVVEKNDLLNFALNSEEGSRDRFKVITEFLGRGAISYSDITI

[2] = target: T2, Vps8-TAP (full-length Vps8, C-terminal TAP tag) (yeast (genomic locus of BY4741/BY4733 strains)) (UniProt P39702); test: as above
T2 sequence: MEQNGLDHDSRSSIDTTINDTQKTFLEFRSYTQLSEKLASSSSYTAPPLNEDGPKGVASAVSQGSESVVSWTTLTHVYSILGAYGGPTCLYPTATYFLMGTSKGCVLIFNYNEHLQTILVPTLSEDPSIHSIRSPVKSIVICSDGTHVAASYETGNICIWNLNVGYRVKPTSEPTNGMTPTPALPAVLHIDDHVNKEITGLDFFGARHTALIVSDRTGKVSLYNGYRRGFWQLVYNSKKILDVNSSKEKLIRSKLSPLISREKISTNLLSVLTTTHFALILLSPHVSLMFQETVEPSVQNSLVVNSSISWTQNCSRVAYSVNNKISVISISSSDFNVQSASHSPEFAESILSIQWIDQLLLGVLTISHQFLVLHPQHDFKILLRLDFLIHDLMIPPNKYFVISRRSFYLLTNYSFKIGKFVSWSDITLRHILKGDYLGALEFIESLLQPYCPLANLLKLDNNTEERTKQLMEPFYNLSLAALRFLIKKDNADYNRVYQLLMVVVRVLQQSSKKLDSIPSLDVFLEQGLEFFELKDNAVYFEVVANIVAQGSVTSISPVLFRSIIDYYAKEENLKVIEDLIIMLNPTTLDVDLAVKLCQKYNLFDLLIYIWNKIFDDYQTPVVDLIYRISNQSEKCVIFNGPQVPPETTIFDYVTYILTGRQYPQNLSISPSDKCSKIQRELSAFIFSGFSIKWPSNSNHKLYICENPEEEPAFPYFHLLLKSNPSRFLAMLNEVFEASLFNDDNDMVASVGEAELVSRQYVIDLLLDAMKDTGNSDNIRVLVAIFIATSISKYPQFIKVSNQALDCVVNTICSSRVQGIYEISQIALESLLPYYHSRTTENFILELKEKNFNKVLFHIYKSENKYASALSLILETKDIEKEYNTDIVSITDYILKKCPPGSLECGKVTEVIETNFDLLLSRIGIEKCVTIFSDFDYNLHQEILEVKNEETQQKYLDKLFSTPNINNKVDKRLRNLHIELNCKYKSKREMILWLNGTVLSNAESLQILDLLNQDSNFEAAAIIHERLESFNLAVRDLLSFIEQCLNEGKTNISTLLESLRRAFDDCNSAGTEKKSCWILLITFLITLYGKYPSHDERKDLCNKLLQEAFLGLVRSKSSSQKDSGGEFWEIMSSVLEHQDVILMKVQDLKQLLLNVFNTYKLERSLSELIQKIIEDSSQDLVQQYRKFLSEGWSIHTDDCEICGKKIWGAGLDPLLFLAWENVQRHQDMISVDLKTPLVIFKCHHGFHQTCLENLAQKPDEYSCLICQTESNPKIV

binding [1]: no binding
binding [2]: binds
Substance: Vps11 (from UniProt P12868 1-1029)
